The RNAGym collection of RNA variant scans (doi:10.7554/elife.90254)
Read counts are not given, so values of variants with three or more changes are uncertain.

B1: LINE1-mini (parent)
chain: GGCAGAGCUCAACACAGCGUGGCAAAGUGGCUGUGGCUAGACUGCC

Variants of: B1
Assay: self-cleavage, relative activity (ratio to wild type); higher = more cleavage; in vitro, sequencing; the parent is a self-cleaving ribozyme

Variant | self-cleavage
A25G G30U G40A | 0.05
A16U G27U G36A | 0.09
G1A A16U C23A | 0.08
A14U C15G G17C U20C U43C | 0.03
G7C U32C G40C | 0.22
G1A U9G C13A C18A A26U G44U | 0.25
G19A G40A C46U | 0.02
A4C G30C A39U | 0.03
G2A G27C U28C U34A C37A A39C C42A U43A | 0.05
G19U U28G C42G | 0.01
A24C A39C A41G | 0.03
G5A C31A C42G | 0.02
G7A G19C G27U U38G | 0.01
C8A A39G C46A | 0.14
A4U A6C G19A U28A G40A | 0.3
G7U C18U G30U A41U | 0.15
C15A G30A G36C C42A | 0.03
U20G U34G G35U | 0.08
G19U U20A U32G U38G | 0.02
C42G G44A C46G | 0.03
A11G G22A G27U C37A | 0.01
G2A C13G G35C | 0.13
C18U U32C A39U | 0.37
A25U G29U C37G U43G C45A | 0

Variant | self-cleavage
U9G C15U U38G | 0.01
U9C G33C G40C | 0.02
A6C C8G A14G C46A | 0.02
G2U U9C G33U A39G G40A A41C C42U | 0
G2U G22A A39G G40C | 0.04
G5C A16C G44A | 0.02
C3U G19A C23G A25C | 0.67
G5U G17C G29U | 0.09
G19C A24G U28C | 0.35
C10U A26G G35C G40U | 0.01
G21C G22U A39C C42G | 0.02
C18A G19U A39G | 0.04
G29A G36C G40A | 0.16
G22C C31A U32G C45A C46U | 0.01
C8A G19U A25U | 0.15
G22C C31U G33U | 0.04
C8U G21A A24C | 1.12
A26G G27A U28G | 0.4
C8A C10A C18G G29A G40C | 0.01
A4C C8U C13U G22A | 0.23
A4U C8G A11G A16C G44A | 0
A6C A16U G21A G33C C42U | 0.14
A16U G22C G30U G35C G44U | 0.05
A25U A26G C42A | 0.24

Variant | self-cleavage
C13U G17C C23U | 0.12
C3U A4U G5U A11G C18G C31U G44U | 0.01
G1U G7A C10A G40A | 0
C8U A11G G29A C37U C46A | 0.02
A26G U28C G29A A39G C42U U43A | 0.09
C15A G21A G30U A39C | 0.03
G2A G5C C13U | 0.04
A6C G33C G36C | 0.1
U9C G17A G19A C31G C42G | 0.03
G30A G33C G36C | 0.03
A14G G22U C31G | 0.18
C10A G29C U34A A39C C42A | 0.02
G7A A16C C18U G36A | 0.09
C18A C31A A39C C46G | 0.01
A14G C23A G30A | 0.56
G27A G36C C37A | 0.1
G5C G33A U34A | 0.07
G5U G21U G33C G36U | 0.06
G17U G27C U32G | 0.05
G1U A14U G33C C42U | 0.05
C3U A14C G19C G33C | 0.03
C3G A6G C13G A16U U20G | 0.04
U9G C15U C18A G27C A41U | 0.05
G2U C8G G22C C37G | 0.01

Variant | self-cleavage
G5A G27U G30U | 0.13
G1C G22C A39C C45A | 0.01
G1A U34A C37G | 0.01
C13G C37A A39G | 0.02
C10G A11C G29A C42A | 0
G7C C15U G35U | 0.1
A12C C15U A24U C37U | 0.03
A14C G22A C31A U43A | 0.02
G1C A4G A12C A16U G17C C42A G44U | 0
C3U C10A G33A A39C U43A | 0.01
G35C U43C G44U | 0
G2A C10A A12C U38C C42U | 0.06
G2C A14G C18A C31U A39G | 0.04
C23A A24U G36U | 0.02
G1U C8U A25C U34G | 0.01
C10A G17C C18G U28C | 0.02
G5C A6G A26U U34C | 0.05
C10A G17A G22A A41G | 0.04
C18U U20C A26U U28C | 0.25
C3G C31A U38C G40U | 0.03
A4G A11C C13A A16U A26C | 0.01
C3U G5C A16U U34G C45U C46U | 0.03
A11U C18U U32C | 0.01
C3U G22U A26U U38A | 0.19

Variant | self-cleavage
A14U G22C G35A | 0.14
C10U C23U G44A | 0.08
G7C A11U G27U G33U | 0
C8U C10U U32C U43C | 0.02
A6C C15U A25U | 1.73
G1A A11C C15A G30U C42G | 0.01
G29U G36C A39G C46A | 0.06
C31G G33C C42A | 0.14
G2A G40C A41C | 0.09
G2C A4U G17U | 0.04
G17U U32A G40C | 0.08
C3G A4C A14U U34G | 1.65
G2A G17A G35A | 0.22
U9A A11U G33C | 0.02
C18G A26G U43G | 0.02
C8U A11U A12U C15A C23A A24G | 0.03
C3A G21U A26U | 0.77
G21C A25C G30A | 2
U9A U32A G35A G44U | 0.12
A6G G21C G40C A41C | 0.05
G2A C23U U32G | 0.22
A14C C31G U34A | 0.01
C3G G17U U34G G44A | 0.02
A16G A39U C42A | 0.06

Variant | self-cleavage
U9C A12G G30A A41U | 0
G2U G7A C8A G30U C46A | 0.08
G2U C23A U34C A39C | 0
G2C C13U G19U U20C | 0.15
G5U G36C C45G | 0.06
A14C C18A A25G | 0.02
G1C G5U U9G A24G G40U | 0.01
C10G U20C G27C G36U A39G | 0
U9C G17C G33U C37U | 0.02
A16C U20G U28G | 0
A4U G21U G29A C37G | 0.02
A4C A16C A26C | 0.47
A4G G7U G35U | 0.13
C10G G19A G22A | 0.1
G1C C3A C23G G27U | 0.19
G5C A12G G30U G35U C46U | 0.04
G17C G30A G33A | 0.09
C13A C18G A26C C31A U32C A41U U43C | 0.01
G2U A16C C37G G40C U43A | 0.02
C3A A4C G17U G40C | 0.23
C18G U34G G36A | 0.07
C31G G35U C42G C46U | 0.03
U9C C45U C46A | 0.05
A6C C10U U20C | 0.08

Variant | self-cleavage
A11G A25C G30C | 0.04
A4U A11G C23A A26U C31G U38A G40U | 0
C3G C23U A26U | 0.14
G5A C13A A14C C37A | 0.05
C8A G19C U32C | 0.23
G2U C15G G35C G40C U43A | 0
C13G U43G C46U | 0.04
U9A C23U C45U | 0.1
G2U A25U C31A | 0.08
C18A U28G G44U C45A | 0.02
A6G G7A A24G C42G | 0.02
A39G U43A G44A | 0.05
G5U C18U G19U A26G G33U | 0.03
A6U C8G G35A G44A | 0.04
U20G G27U U34C U43C | 0.08
C18A G33C G36C C45G | 0.02
G1U C13U G35U C45A | 0.02
A4U G17A G22A C45G | 0.03
C3G U38C U43C | 0.11
A14U G22C C23U | 1.13
A11G A12C A24G U34G G40A C46A | 0
G2A A6G C15U U32C G40U | 0.07
A6C A11G C18U G19U | 0.02
